Results reported in ChEMBL document CHEMBL4888484, “Replenishing the malaria drug discovery pipeline: Screening and hit evaluation of the MMV Hit Generation Library 1 (HGL1) against asexual blood stage Plasmodium falciparum ,using a nano luciferase reporter read-out” (2022).
About 540 (0.36%) of roughly 150,000 compounds showed an effect of 50% or more. This is one part of the list.

test system: Plasmodium falciparum; experiment: Primary screen in NF54 nanoGlo assay, in single point, at 2uM, 72h; a lower Z score goes with more inhibition; assay type: functional, Erythrocyte; details: timepoint 72 hour

Point of comparison: `COc1cccc(-n2nc(C)c(CCC(=O)N3CCC[C@H]3c3ccc4c(c3)OCCCO4)c2C)c1`, “% Inhibition” value 0%. Against it:
- Cc1cc(C)cc(CN2CCCN(c3ccc(C)cc3NC(=O)Cc3ccc(F)cc3)C2=O)c1 — higher, 39%
- CCc1sc(C(C)NS(=O)(=O)C(C#N)CC)cc1C (configuration not stated) — higher, 3%
- Cc1nccn1C[C@H]1CCCN(c2nccnc2C#N)C1 — higher, 5%
- CCC(NS(=O)(=O)CCOc1ccccc1F)[C@H]1C[C@H](O)C1 (some centres not stated) — higher, 3%
- CCN(CC(=O)NCC1CCCCC1)CC(=O)Nc1ccc(NC(C)=O)cc1 — lower, -6%
- CCC(CC)NC(=O)Nc1ccc(Cl)cc1Cl — lower, -3%
- c1c[nH]c(-c2ccc(CN3CCCC3)s2)n1 — the same, 0%
- CC(C)c1ccc(CN2CCn3nc(CNc4cnccn4)cc3C2)cc1 — lower, -7%
- Cc1noc(CCC(=O)N2CC(C)(O)C2)n1 — lower, -8%
- CC(C)c1[nH]ccc1C(=O)N[C@@H](C)c1cnn(C)c1 — lower, -3%
- O=S(=O)(c1ccccc1)c1ccc(-c2nnc(-c3ccccc3Cl)o2)cc1 — lower, -8%
- CCOC(=O)c1cc(-c2cccc(NC(=O)c3ccccc3F)c2)n(-c2cccc(C)c2)n1 — lower, -8%
- Cc1ccc(F)c(NS(=O)(=O)c2cc3c(=O)[nH]ncn3c2)c1 — higher, 1%
- COc1ccc2cc(C(=O)N3CC(n4cccn4)C3)n(C)c2c1 — lower, -8%
- O=C(CC(F)(F)F)NCc1noc(Cc2ccccc2)n1 — higher, 21%
- CCc1ccccc1NC(=O)N1CCC2(CCO2)CC1 — lower, -2%
- Cc1cc(CNCCc2nncn2C(C)C)cc(C)c1OCc1ccccc1Cl — lower, -6%
- O=C(c1ncccc1O)N1CCN(Cc2ccncc2)[C@@H]2CS(=O)(=O)C[C@@H]21 — higher, 12%
- O=C([C@@H]1Cc2ccccc2O1)N1CCc2n[nH]cc2C1 — higher, 7%
- COc1ccccc1OCC(=O)Nc1ccc2c(c1)C(=O)N1CCC[C@H]1C(=O)N2 — lower, -13%
- CC(=O)c1ccc(F)c(CCCn2ccnc2)c1 — higher, 2%
- O=C(C[C@H](c1cccc(C(F)(F)F)c1)c1cn(Cc2ccccc2)c2ccccc12)NCc1ccccc1 — lower, -2%
- CCc1cnc(CNC(=O)N2CCC[C@H]2Cc2ccnn2C)s1 — higher, 2%
- Cc1nc2[nH]nc(N)c2c(C)c1C1=CCCCC1 — higher, 7%
- Clc1ccc(C2(c3nnc(-c4cc(-c5ccccc5)n[nH]4)o3)CCOCC2)cc1 — lower, -3%
- Cc1nonc1CN(C)Cc1cc(-c2cccs2)ccc1OCC(=O)O — lower, -5%
- Cc1cc(NC(=O)N(CCO)C2CC2)no1 — lower, -17%
- CCOc1ccc(CCNC(=O)C2CCN(c3ncnc4oc(C)c(C)c34)CC2)cc1OCC — lower, -1%
- O=C(CC1(c2ccccc2F)CC(=O)N(C2CCCC2)C1=O)N(CC1CCC1)CC1CCCO1 (configuration not stated) — lower, -11%
- CCC(C(=O)N1C2C=CCC1CC2)c1ccccc1 (configuration not stated) — lower, -7%
- Cc1nn(C)cc1[C@H]1OCC[C@@H]1NC(=O)Nc1cccc(-c2ncco2)c1C — higher, 1%
- COc1ccc(S(=O)(=O)N(C)Cc2c[nH]nc2C)c2c1CCCC2 — lower, -11%
- CC(C)NC(=O)N[C@H]1CO[C@@H](CN2CCC(F)(F)C2)[C@@H]1O — higher, 17%
- CCCN1C(=O)c2ccccc2C(C(=O)N2CCOCC2)C1c1cc(OC)c(OC)c(OC)c1 (configuration not stated) — lower, -12%
- Cn1cncc1-c1cccc(-c2cc[nH]n2)c1 — higher, 5%
- Cn1cc(-c2ncnn2CC(F)(F)F)ccc1=O — lower, -22%
- COCC(C)N(C)CC(O)c1ccc(OC(F)(F)F)cc1 (configuration not stated) — lower, -2%
- CC(OCC1CCCO1)C(=O)N1CCCC1(C)C(=O)OC(C)(C)C (configuration not stated) — lower, -7%
- CCOc1cccc(OCC)c2c(C)[n+](-c3ccc(C)cc3)c(C)c1-2 — lower, -1%
- CC(C)Cn1cc(C(=O)OCc2ccc3[nH]nnc3c2)cn1 — lower, -8%

Point of comparison: `CCOc1ccc(CCNC(=O)C2CCN(c3ncnc4oc(C)c(C)c34)CC2)cc1OCC`, Z score 0.17. Against it:
- Cc1cc(C)cc(CN2CCCN(c3ccc(C)cc3NC(=O)Cc3ccc(F)cc3)C2=O)c1 — lower, -5.23
- CCc1sc(C(C)NS(=O)(=O)C(C#N)CC)cc1C (configuration not stated) — lower, -0.49
- Cc1nccn1C[C@H]1CCCN(c2nccnc2C#N)C1 — lower, -0.91
- CCC(NS(=O)(=O)CCOc1ccccc1F)[C@H]1C[C@H](O)C1 (some centres not stated) — lower, -0.47
- CCN(CC(=O)NCC1CCCCC1)CC(=O)Nc1ccc(NC(C)=O)cc1 — higher, 0.77
- CCC(CC)NC(=O)Nc1ccc(Cl)cc1Cl — higher, 0.42
- c1c[nH]c(-c2ccc(CN3CCCC3)s2)n1 — lower, -0.03
- CC(C)c1ccc(CN2CCn3nc(CNc4cnccn4)cc3C2)cc1 — higher, 0.85
- Cc1noc(CCC(=O)N2CC(C)(O)C2)n1 — higher, 1.19
- CC(C)c1[nH]ccc1C(=O)N[C@@H](C)c1cnn(C)c1 — higher, 0.58
- O=S(=O)(c1ccccc1)c1ccc(-c2nnc(-c3ccccc3Cl)o2)cc1 — higher, 1.27
- CCOC(=O)c1cc(-c2cccc(NC(=O)c3ccccc3F)c2)n(-c2cccc(C)c2)n1 — higher, 1.15
- Cc1ccc(F)c(NS(=O)(=O)c2cc3c(=O)[nH]ncn3c2)c1 — lower, -0.19
- COc1ccc2cc(C(=O)N3CC(n4cccn4)C3)n(C)c2c1 — higher, 1.51
- O=C(CC(F)(F)F)NCc1noc(Cc2ccccc2)n1 — lower, -2.63
- CCc1ccccc1NC(=O)N1CCC2(CCO2)CC1 — higher, 0.21
- Cc1cc(CNCCc2nncn2C(C)C)cc(C)c1OCc1ccccc1Cl — higher, 1.32
- O=C(c1ncccc1O)N1CCN(Cc2ccncc2)[C@@H]2CS(=O)(=O)C[C@@H]21 — lower, -1.5
- O=C([C@@H]1Cc2ccccc2O1)N1CCc2n[nH]cc2C1 — lower, -1.19
- COc1cccc(-n2nc(C)c(CCC(=O)N3CCC[C@H]3c3ccc4c(c3)OCCCO4)c2C)c1 — lower, 0.05
- COc1ccccc1OCC(=O)Nc1ccc2c(c1)C(=O)N1CCC[C@H]1C(=O)N2 — higher, 1.73
- CC(=O)c1ccc(F)c(CCCn2ccnc2)c1 — lower, -0.32
- O=C(C[C@H](c1cccc(C(F)(F)F)c1)c1cn(Cc2ccccc2)c2ccccc12)NCc1ccccc1 — higher, 0.22
- CCc1cnc(CNC(=O)N2CCC[C@H]2Cc2ccnn2C)s1 — lower, -0.38
- Cc1nc2[nH]nc(N)c2c(C)c1C1=CCCCC1 — lower, -0.89
- Clc1ccc(C2(c3nnc(-c4cc(-c5ccccc5)n[nH]4)o3)CCOCC2)cc1 — higher, 0.49
- Cc1nonc1CN(C)Cc1cc(-c2cccs2)ccc1OCC(=O)O — higher, 0.92
- Cc1cc(NC(=O)N(CCO)C2CC2)no1 — higher, 3.36
- O=C(CC1(c2ccccc2F)CC(=O)N(C2CCCC2)C1=O)N(CC1CCC1)CC1CCCO1 (configuration not stated) — higher, 2.07
- CCC(C(=O)N1C2C=CCC1CC2)c1ccccc1 (configuration not stated) — higher, 0.87
- Cc1nn(C)cc1[C@H]1OCC[C@@H]1NC(=O)Nc1cccc(-c2ncco2)c1C — lower, -0.12
- COc1ccc(S(=O)(=O)N(C)Cc2c[nH]nc2C)c2c1CCCC2 — higher, 1.44
- CC(C)NC(=O)N[C@H]1CO[C@@H](CN2CCC(F)(F)C2)[C@@H]1O — lower, -2.01
- CCCN1C(=O)c2ccccc2C(C(=O)N2CCOCC2)C1c1cc(OC)c(OC)c(OC)c1 (configuration not stated) — higher, 1.36
- Cn1cncc1-c1cccc(-c2cc[nH]n2)c1 — lower, -0.67
- Cn1cc(-c2ncnn2CC(F)(F)F)ccc1=O — higher, 2.36
- COCC(C)N(C)CC(O)c1ccc(OC(F)(F)F)cc1 (configuration not stated) — higher, 0.27
- CC(OCC1CCCO1)C(=O)N1CCCC1(C)C(=O)OC(C)(C)C (configuration not stated) — higher, 1.28
- CCOc1cccc(OCC)c2c(C)[n+](-c3ccc(C)cc3)c(C)c1-2 — lower, 0.12
- CC(C)Cn1cc(C(=O)OCc2ccc3[nH]nnc3c2)cn1 — higher, 1.07
